# Measured values: the supplement of paper PMC8728848
# The list shows a part of the results.
# Assays:
# Test in all cases: glycan array binding signal (z-score within array); higher = stronger binding
# Conditions in all cases: glycan notation: IUPAC condensed, linker removed
# [1] = biological target: Neu5Ac(a2-3)Gal(b1-3)[Fuc(a1-4)]GlcNAc
# Summary of the method: (§1)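 The binding signal is a Z-score computed within each array. Data were drawn from 3228 arrays in the Consortium for Functional Glycomics database, restricted to those with a known protein sequence. Scores were averaged over arrays of the same protein sequence at different concentrations or buffers, and over linkers, and negative values can be taken as non-binding.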
# [2] = biological target: Neu5Ac(a2-3)Gal(b1-3)[Fuc(a1-4)]GlcNAc(b1-3)Gal(b1-3)[Fuc(a1-4)]GlcNAc
# Summary of the method: as §1
# [3] = biological target: Neu5Ac(a2-3)Gal(b1-3)[Fuc(a1-4)]GlcNAc(b1-3)Gal(b1-4)[Fuc(a1-3)]GlcNAc
# Summary of the method: as §1
# [4] = biological target: Neu5Ac(a2-3)Gal(b1-3)[GlcNAc(b1-6)]GalNAc
# Summary of the method: as §1
# [5] = biological target: Neu5Ac(a2-3)Gal(b1-3)[Neu5Ac(a2-6)]GalNAc
# Summary of the method: as §1
# [6] = biological target: Neu5Ac(a2-3)Gal(b1-3)[Neu5Ac(a2-6)]GlcNAc(b1-3)[Fuc(a1-3)[Gal(b1-4)]GlcNAc(b1-6)]Gal(b1-4)Glc
# Summary of the method: as §1
# [7] = biological target: Neu5Ac(a2-3)Gal(b1-3)]Neu5Ac(a2-3)Gal(b1-4)]GlcNAc
# Summary of the method: as §1
# Neu5Ac(a2-3)Gal(b1-4)Glc = biological target: Neu5Ac(a2-3)Gal(b1-4)Glc
# Summary of the method: as §1
# [8] = biological target: Neu5Ac(a2-3)Gal(b1-4)GlcNAc
# Summary of the method: as §1
# [9] = biological target: Neu5Ac(a2-3)Gal(b1-4)GlcNAc(b1-2)Man
# Summary of the method: as §1
# [10] = biological target: Neu5Ac(a2-3)Gal(b1-4)GlcNAc(b1-2)Man(a1-3)[GlcNAc(b1-4)][Neu5Ac(a2-3)Gal(b1-4)GlcNAc(b1-2)Man(a1-6)]Man(b1-4)GlcNAc(b1-4)GlcNAc
# Summary of the method: as §1
# [11] = biological target: Neu5Ac(a2-3)Gal(b1-4)GlcNAc(b1-2)Man(a1-3)[Neu5Ac(a2-3)Gal(b1-4)GlcNAc(b1-2)Man(a1-6)]Man(b1-4)GlcNAc(b1-4)GlcNAc
# Summary of the method: as §1
# [12] = biological target: Neu5Ac(a2-3)Gal(b1-4)GlcNAc(b1-2)Man(a1-3)[Neu5Ac(a2-3)Gal(b1-4)GlcNAc(b1-2)Man(a1-6)]Man(b1-4)GlcNAc(b1-4)[Fuc(a1-6)]GlcNAc
# Summary of the method: as §1
# [13] = biological target: Neu5Ac(a2-3)Gal(b1-4)GlcNAc(b1-2)Man(a1-3)[Neu5Ac(a2-6)Gal(b1-4)GlcNAc(b1-2)Man(a1-6)]Man(b1-4)GlcNAc(b1-4)GlcNAc
# Summary of the method: as §1
# [14] = biological target: Neu5Ac(a2-3)Gal(b1-4)GlcNAc(b1-2)[Neu5Ac(a2-3)Gal(b1-4)GlcNAc(b1-4)]Man(a1-3)[GlcNAc(b1-4)][Neu5Ac(a2-3)Gal(b1-4)GlcNAc(b1-2)[Neu5Ac(a2-3)Gal(b1-4)GlcNAc(b1-6)]Man(a1-6)]Man(b1-4)GlcNAc(b1-4)GlcNAc
# Summary of the method: as §1
# [15] = biological target: Neu5Ac(a2-3)Gal(b1-4)GlcNAc(b1-2)[Neu5Ac(a2-3)Gal(b1-4)GlcNAc(b1-4)]Man(a1-3)[GlcNAc(b1-4)][Neu5Ac(a2-3)Gal(b1-4)GlcNAc(b1-4)Man(a1-6)]Man(b1-4)GlcNAc(b1-4)GlcNAc
# Summary of the method: as §1
# [16] = biological target: Neu5Ac(a2-3)Gal(b1-4)GlcNAc(b1-2)[Neu5Ac(a2-3)Gal(b1-4)GlcNAc(b1-6)]Man(a1-6)[Neu5Ac(a2-3)Gal(b1-4)GlcNAc(b1-2)Man(a1-3)]Man(b1-4)GlcNAc(b1-4)GlcNAc
# Summary of the method: as §1
# [17] = biological target: Neu5Ac(a2-3)Gal(b1-4)GlcNAc(b1-2)[Neu5Ac(a2-3)Gal(b1-4)GlcNAc(b1-6)]Man(a1-6)[Neu5Ac(a2-3)Gal(b1-4)GlcNAc(b1-2)Man(a1-3)][GlcNAc(b1-4)]Man(b1-4)GlcNAc(b1-4)GlcNAc
# Summary of the method: as §1
# [18] = biological target: Neu5Ac(a2-3)Gal(b1-4)GlcNAc(b1-3)Gal
# Summary of the method: as §1
# [19] = biological target: Neu5Ac(a2-3)Gal(b1-4)GlcNAc(b1-3)Gal(b1-3)GlcNAc
# Summary of the method: as §1
# [20] = biological target: Neu5Ac(a2-3)Gal(b1-4)GlcNAc(b1-3)Gal(b1-4)GlcNAc
# Summary of the method: as §1
# [21] = biological target: Neu5Ac(a2-3)Gal(b1-4)GlcNAc(b1-3)Gal(b1-4)GlcNAc(b1-2)Man(a1-3)[Neu5Ac(a2-3)Gal(b1-4)GlcNAc(b1-3)Gal(b1-4)GlcNAc(b1-2)Man(a1-6)]Man(b1-4)GlcNAc(b1-4)GlcNAc
# Summary of the method: as §1
# [22] = biological target: Neu5Ac(a2-3)Gal(b1-4)GlcNAc(b1-3)Gal(b1-4)GlcNAc(b1-3)Gal(b1-4)GlcNAc
# Summary of the method: as §1
# [23] = biological target: Neu5Ac(a2-3)Gal(b1-4)GlcNAc(b1-3)Gal(b1-4)GlcNAc(b1-3)Gal(b1-4)GlcNAc(b1-2)Man(a1-3)[Neu5Ac(a2-3)Gal(b1-4)GlcNAc(b1-3)Gal(b1-4)GlcNAc(b1-3)Gal(b1-4)GlcNAc(b1-2)Man(a1-6)]GalNAc
# Summary of the method: as §1
# [24] = biological target: Neu5Ac(a2-3)Gal(b1-4)GlcNAc(b1-3)Gal(b1-4)GlcNAc(b1-3)GalNAc
# Summary of the method: as §1
# [25] = biological target: Neu5Ac(a2-3)Gal(b1-4)GlcNAc(b1-3)Gal(b1-4)GlcNAc(b1-3)[Neu5Ac(a2-3)Gal(b1-4)GlcNAc(b1-3)Gal(b1-4)GlcNAc(b1-6)]GalNAc
# Summary of the method: as §1
# [26] = biological target: Neu5Ac(a2-3)Gal(b1-4)GlcNAc(b1-3)Gal(b1-4)GlcNAc(b1-6)[Gal(b1-3)]GalNAc
# Summary of the method: as §1
# [27] = biological target: Neu5Ac(a2-3)Gal(b1-4)GlcNAc(b1-3)Gal(b1-4)[Fuc(a1-3)]GlcNAc
# Summary of the method: as §1
# [28] = biological target: Neu5Ac(a2-3)Gal(b1-4)GlcNAc(b1-3)GalNAc
# Summary of the method: as §1
# [29] = biological target: Neu5Ac(a2-3)Gal(b1-4)GlcNAc(b1-3)[Neu5Ac(a2-3)Gal(b1-4)GlcNAc(b1-6)]GalNAc
# Summary of the method: as §1
binder,measurement,setting,value
GS13686A-pdi-553-26-553 (Parabacteroides distasonis) (protein) NENPDKPTDDVNYNMNEPRLASTLRGGLIIEGNVEQRLKPLQIDFYSQMTVDGGGWGTKNYIQDDEWNNLVWEEYLKQIASINIVIRSLTEKDKDAYANTIAFARIWRVYVHTLAADKFGPMPFPAYEIVEANPPYKSLKDIYDEYFRELDAAINGFNDSAQPIFSDAGIDLIYKNDVSKWKRFANSLRLRLAVRLTEVDQEKCIAEANAAISSPAGLISDKADNAYMPPKADGSWGQDYNYTMFQITWSGPICMSKSVEKLVTNIGGVAWPQGVVNQTSGVAVSSVHPEKVDPRAPKIFQPGIENGDWKGLVYGPKAEEANTGIYQSKQCAELGFIIKDGYPYKSRPYDLFLSEEVHFLKAELYARGFIAGDAKSEYEAGVRASFATWGVTSEVDDYLTSTEKNEAGTSARYDDQQGAGNTALEKIITQKYIAGIPDLAQEGWNDKRRLNLPRLDVAVYRDQAVYNNNDKDILKSANFIKRMRYPTKESLINATEYEKGKSMLGGKGDIVSTPLWWDKNSNYCTSSK,glycan array binding signal (z-score),[1],-0.154
same,glycan array binding signal (z-score),[2],-0.153
same,glycan array binding signal (z-score),[3],0.14
same,glycan array binding signal (z-score),[4],-0.277
same,glycan array binding signal (z-score),[5],-0.322
same,glycan array binding signal (z-score),[6],-0.086
same,glycan array binding signal (z-score),[7],-0.327
same,glycan array binding signal (z-score),Neu5Ac(a2-3)Gal(b1-4)Glc,-0.314
same,glycan array binding signal (z-score),[8],-0.118
same,glycan array binding signal (z-score),[9],0.125
same,glycan array binding signal (z-score),[10],-0.157
same,glycan array binding signal (z-score),[11],-0.089
same,glycan array binding signal (z-score),[12],-0.119
same,glycan array binding signal (z-score),[13],1.01
same,glycan array binding signal (z-score),[14],0.051
same,glycan array binding signal (z-score),[15],-0.263
same,glycan array binding signal (z-score),[16],-0.229
same,glycan array binding signal (z-score),[17],-0.154
same,glycan array binding signal (z-score),[18],-0.363
same,glycan array binding signal (z-score),[19],-0.389
same,glycan array binding signal (z-score),[20],-0.15
same,glycan array binding signal (z-score),[21],0.246
same,glycan array binding signal (z-score),[22],-0.211
same,glycan array binding signal (z-score),[23],0.409
same,glycan array binding signal (z-score),[24],0.073
same,glycan array binding signal (z-score),[25],0.156
same,glycan array binding signal (z-score),[26],-0.217
same,glycan array binding signal (z-score),[27],-0.244
same,glycan array binding signal (z-score),[28],-0.277
same,glycan array binding signal (z-score),[29],-0.385
